Data reported in the RNAGym collection of RNA variant scans (doi:10.7554/elife.90254).
The source gives no read counts; variants with many changes may rest on few reads.

B1: LINE1-mini (parent)
chain: GGCAGAGCUCAACACAGCGUGGCAAAGUGGCUGUGGCUAGACUGCC

Variants of: B1
Experiment: self-cleavage, relative activity (ratio to wild type); higher = more cleavage; in vitro, sequencing; the parent is a self-cleaving ribozyme

Question: Which self-cleavage does the source give for GGAAGGGCUCAACACAGCGUGGCAAAGUGGCUGUGGCUAGACUACC [C3A A6G G44A] here?
Answer: The self-cleavage was 0.07.

Question: For GGAAGUGCUCAACACAGCGUGGCCAAGUGGCUGUGGCUAGACUGCC [C3A A6U A24C], which self-cleavage is on record?
Answer: Its self-cleavage is 0.1.

Question: Which self-cleavage does the source give for GGAAGUGCUCAACACAGCGUGGCUAAUUGGCUGUGGCUAGACUGCC [C3A A6U A24U G27U] here?
Answer: The self-cleavage was 0.98.

Question: With GGAAGUGCUCAACACAGCGUGGCACAGUGGCUGUGGCUAGACUGCC [C3A A6U A25C] as the variant, how does the self-cleavage read?
Answer: Its self-cleavage is 0.14.

Question: For GGAAGUGCUCAACAAAGCGUGGCAAAGUGGCAGUGGCUUGACUGCC [C3A A6U C15A U32A A39U], which self-cleavage is on record?
Answer: The self-cleavage was 0.06.

Question: Which self-cleavage does the source give for GGAAGUGCUCAACACAGCGUGGCAAAGUGGCUGUGGCUAGAAAGCC [C3A A6U C42A U43A] here?
Answer: The self-cleavage was 1.52.

Question: With GGAAGUCUUCAACACAGCGUGACAAAGUCGCUGUGGCUAGACUGCC [C3A A6U G7C C8U G22A G29C] as the variant, how does the self-cleavage read?
Answer: Its self-cleavage is 0.14.

Question: Which self-cleavage does the source give for GGAAGUCCUCAACACAGCGUGGCAAAGUAGCUGUGGCUAGACUGCC [C3A A6U G7C G29A] here?
Answer: The self-cleavage was 0.02.

Question: For GGAAGUUCUCAACACAGCGUGGCAGAGUAGCUGUGGCUAGACUGCC [C3A A6U G7U A25G G29A], which self-cleavage is on record?
Answer: The self-cleavage was 0.03.

Question: Which self-cleavage does the source give for GGAAGUGCUCAACACAGCGUGGCAAAGUUGCUGUGUCUAGACUGCC [C3A A6U G29U G36U] here?
Answer: Its self-cleavage is 0.4.

Question: Which self-cleavage does the source give for GGAAGUGCACAACACAGCGUGGCAAAGUGGCUGUGGCUAGACUGCC [C3A A6U U9A] here?
Answer: The self-cleavage was 0.93.

Question: Which self-cleavage does the source give for GGAAGAGCUCCAAACAGCGUGGCAAAGUGGCUGUGGCUAGAGUGCC [C3A A11C C13A C42G] here?
Answer: The self-cleavage was 0.03.

Question: With GGAAGAGCUCCACAAGGCGUGGCAUUGUGGCUGUGGCUAGACUGCC [C3A A11C C15A A16G A25U A26U] as the variant, how does the self-cleavage read?
Answer: The self-cleavage was 0.06.

Question: For GGAAGAGCUCGACACAGCGUGGCAAAGUGGGUGUGGCUAGACUGCC [C3A A11G C31G], which self-cleavage is on record?
Answer: Its self-cleavage is 0.02.

Question: Which self-cleavage does the source give for GGAAGAGCUCUACGCAGCGUGGCAAAGUGGCUGUGGCUAGACUGCC [C3A A11U A14G] here?
Answer: The self-cleavage was 0.05.

Question: Which self-cleavage does the source give for GGAAGAGCUCUACACAGCGUGGCCAAGUGGAUGUGGCUAGACUGCC [C3A A11U A24C C31A] here?
Answer: The self-cleavage was 0.03.

Question: For GGAAGAGCUCUACACAGCGUGGCAAAGUGGCUGUGGCUCGACUGCC [C3A A11U A39C], which self-cleavage is on record?
Answer: The self-cleavage was 0.02.

Question: With GGAAGAGCUCUACACAGCGUGGCAAAGUGGUUGGGGCUAGACUGCC [C3A A11U C31U U34G] as the variant, how does the self-cleavage read?
Answer: The self-cleavage was 0.

Question: With GGAAGAGCUCUACACAAGGUGGCAAAGUGGCUUAGGCUAGACUGCC [C3A A11U G17A C18G G33U U34A] as the variant, how does the self-cleavage read?
Answer: The self-cleavage was 0.05.

Question: Which self-cleavage does the source give for GGAAGAGCUCACCUCAGCGUGGCAAAGUCGCUGUGGCUAGACUGCC [C3A A12C A14U G29C] here?
Answer: Its self-cleavage is 0.03.

Question: Which self-cleavage does the source give for GGAAGAGCUCACCACAGCUUGGCAAAGUCGCUGUGGCUAGACUGCC [C3A A12C G19U G29C] here?
Answer: Its self-cleavage is 0.05.

Question: For GGAAGAGCUCACCACAGCGUGGCAAAGUCGGUGUGGCUAAAUUGCC [C3A A12C G29C C31G G40A C42U], which self-cleavage is on record?
Answer: Its self-cleavage is 0.01.

Question: For GGAAGAGCUCAGCUUAGCUUAGCAAAGUGGCUGUGGCUAGACUGCC [C3A A12G A14U C15U G19U G21A], which self-cleavage is on record?
Answer: The self-cleavage was 0.03.

Question: For GGAAGAGCUCAGCACUGCGUGGCAAAAUGGCUGUGGCUAGACUGCC [C3A A12G A16U G27A], which self-cleavage is on record?
Answer: Its self-cleavage is 0.62.

Question: Which self-cleavage does the source give for GGAAGAGCUCAUCACAGCGUGGCGUAGUGGCUGUGGCUAGACUGCC [C3A A12U A24G A25U] here?
Answer: The self-cleavage was 0.32.

Question: For GGAAGAGCUCAUCACAGUGUGGCAAAGUGGCUGUGGCUAGACUGCC [C3A A12U C18U], which self-cleavage is on record?
Answer: Its self-cleavage is 0.61.

Question: Which self-cleavage does the source give for GGAAGAGCUCAACCCAGCCUGGCAAACUGGCUGUGGCUAUACUGCC [C3A A14C G19C G27C G40U] here?
Answer: The self-cleavage was 0.03.

Question: Which self-cleavage does the source give for GGAAGAGCUCAACCCAGCGUGGCAAAGUAGCUGUGGCUAGACUUCC [C3A A14C G29A G44U] here?
Answer: The self-cleavage was 0.14.

Question: Which self-cleavage does the source give for GGAAGAGCUCAACCCAGCGUGGCAAAGUCGCUGUGGCUAGAUUGCC [C3A A14C G29C C42U] here?
Answer: Its self-cleavage is 0.02.

Question: With GGAAGAGCUCAACGCAGCGUGGCAUAGUGGCUGUGGCUAGACUGCU [C3A A14G A25U C46U] as the variant, how does the self-cleavage read?
Answer: Its self-cleavage is 0.12.

Question: For GGAAGAGCUCAACGCAGCCUGGCAAAGUGGCUGAGGCUAGACUGCC [C3A A14G G19C U34A], which self-cleavage is on record?
Answer: Its self-cleavage is 0.12.

Question: With GGAAGAGCUCAACGCAGCGUGGCAAAGUGGCGGUCCGUAGACUGCC [C3A A14G U32G G35C G36C C37G] as the variant, how does the self-cleavage read?
Answer: Its self-cleavage is 0.02.

Question: With GGAAGAGCUCAACACCGCGUGGCCAAGUGGCUGUGGCUAGACUGCC [C3A A16C A24C] as the variant, how does the self-cleavage read?
Answer: The self-cleavage was 0.14.

Question: With GGAAGAGCUCAACACGGCGUGCCAAAGUGGCUGUGGCUAGACUGCC [C3A A16G G22C] as the variant, how does the self-cleavage read?
Answer: The self-cleavage was 0.03.

Question: With GGAAGAGCUCAACACGGCGUGGCAAAUGGGCUGUGGCUAGACUGCC [C3A A16G G27U U28G] as the variant, how does the self-cleavage read?
Answer: Its self-cleavage is 0.11.

Question: With GGAAGAGCUCAACACGGCGUGGCAAAGUGGCUGUGGCUAGACUACC [C3A A16G G44A] as the variant, how does the self-cleavage read?
Answer: The self-cleavage was 0.42.

Question: For GGAAGAGCUCAACACGGCGUGGCAAAGUGGCUGUGGCUAGACUUCC [C3A A16G G44U], which self-cleavage is on record?
Answer: Its self-cleavage is 0.16.

Question: Which self-cleavage does the source give for GGAAGAGCUCAACACUGCGUGGCAAAGUUGCUGUGGCUAGGCUGCC [C3A A16U G29U A41G] here?
Answer: Its self-cleavage is 0.18.

Question: With GGAAGAGCUCAACACAGCGUGGCCAAGUGGCUGUGGCUAGACUGCA [C3A A24C C46A] as the variant, how does the self-cleavage read?
Answer: Its self-cleavage is 0.08.

Question: For GGAAGAGCUCAACACAGCGUGGCGAAGUGGCUGUGGCUAGACGGCC [C3A A24G U43G], which self-cleavage is on record?
Answer: Its self-cleavage is 1.88.

Question: For GGAAGAGCUCAACACAGCGUGGCUGAGUGGCUGUGCCUAGACUGCC [C3A A24U A25G G36C], which self-cleavage is on record?
Answer: The self-cleavage was 0.09.

Question: For GGAAGAGCUCAACACAGCGUGGCUAAGUGGCGGUGGCUAGACUGCC [C3A A24U U32G], which self-cleavage is on record?
Answer: Its self-cleavage is 0.13.

Question: Which self-cleavage does the source give for GGAAGAGCUCAACACAGCGUGGCUAAGUGGCUGUGGCUAGACGGCC [C3A A24U U43G] here?
Answer: Its self-cleavage is 0.07.

Question: Which self-cleavage does the source give for GGAAGAGCUCAACACAGCGUGGCAGAGUGGCUGUGGCUAGAGUGCC [C3A A25G C42G] here?
Answer: Its self-cleavage is 0.02.

Question: With GGAAGAGCUCAACACAGCGUGGCAUAGGGGCUGUGGCUAGACUGCC [C3A A25U U28G] as the variant, how does the self-cleavage read?
Answer: Its self-cleavage is 0.19.

Question: With GGAAGAGCUCAACACAGCGUGGCAACGUGGCUGUGGCUGGACUGCC [C3A A26C A39G] as the variant, how does the self-cleavage read?
Answer: The self-cleavage was 0.33.

Question: For GGAAGAGCUCAACACAGCGUGGCAACGUGGCUAUGGCUAGAUUGCC [C3A A26C G33A C42U], which self-cleavage is on record?
Answer: Its self-cleavage is 0.3.

Question: With GGAAGAGCUCAACACAGCGUGGCAACGUGGCUGUGACUAGACUGCC [C3A A26C G36A] as the variant, how does the self-cleavage read?
Answer: Its self-cleavage is 0.49.

Question: Which self-cleavage does the source give for GGAAGAGCUCAACACAGCGUGGCAACGGGGCUGUGGCUAGACUUCC [C3A A26C U28G G44U] here?
Answer: Its self-cleavage is 1.05.

Question: Which self-cleavage does the source give for GGAAGAGCUCAACACAGCGUGGCAAGAUGGCUGUGGCUAGACUGCC [C3A A26G G27A] here?
Answer: The self-cleavage was 0.32.

Question: Which self-cleavage does the source give for GGAAGAGCUCAACACAGCGUGGCAAAGUGGCUGUGGCUGUACUGCC [C3A A39G G40U] here?
Answer: The self-cleavage was 0.86.

Question: Which self-cleavage does the source give for GGAAGAGCUCAACACAGCGUGGCAAAGUGGCUGUGGCUAGGCUGCA [C3A A41G C46A] here?
Answer: Its self-cleavage is 0.1.

Question: With GGAAGAGCUCAACACAGCGUGGCAAAGUGGCUGUGGCUAGGCUGCU [C3A A41G C46U] as the variant, how does the self-cleavage read?
Answer: The self-cleavage was 0.02.

Question: Which self-cleavage does the source give for GGAAGAGAUCUACAGAGCGUGGCAAAGUGGCUGAGGCUAGACUGGC [C3A C8A A11U C15G U34A C45G] here?
Answer: Its self-cleavage is 0.01.

Question: With GGAAGAGAUCAACACGGCGGGGCAAAGUGGCUGUGGCUAGACUGCC [C3A C8A A16G U20G] as the variant, how does the self-cleavage read?
Answer: The self-cleavage was 0.33.

Question: With GGAAGAGAUGAACACAGCGUGGCAAAGUGGCUGUGGCUAGACUGCC [C3A C8A C10G] as the variant, how does the self-cleavage read?
Answer: The self-cleavage was 0.01.
